# Laboratory results published in paper PMC4336329 (PLoS ONE, 2015).
# About 14,000 (4.5%) of roughly 310,000 compounds showed an effect of 50% or more. The effect is printed as a negative number. The list shows a part of the results.
# Target: human ether-à-go-go-related gene (hERG) potassium channel (human, UniProt Q12809)
# Test: primary screen, population patch clamp on CHO cells stably expressing hERG
# 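Further: peak tail current of the secondary pulse compared with the same well before compound.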
# Sequence of human ether-à-go-go-related gene (hERG) potassium channel (Q12809 whole entry, looked up): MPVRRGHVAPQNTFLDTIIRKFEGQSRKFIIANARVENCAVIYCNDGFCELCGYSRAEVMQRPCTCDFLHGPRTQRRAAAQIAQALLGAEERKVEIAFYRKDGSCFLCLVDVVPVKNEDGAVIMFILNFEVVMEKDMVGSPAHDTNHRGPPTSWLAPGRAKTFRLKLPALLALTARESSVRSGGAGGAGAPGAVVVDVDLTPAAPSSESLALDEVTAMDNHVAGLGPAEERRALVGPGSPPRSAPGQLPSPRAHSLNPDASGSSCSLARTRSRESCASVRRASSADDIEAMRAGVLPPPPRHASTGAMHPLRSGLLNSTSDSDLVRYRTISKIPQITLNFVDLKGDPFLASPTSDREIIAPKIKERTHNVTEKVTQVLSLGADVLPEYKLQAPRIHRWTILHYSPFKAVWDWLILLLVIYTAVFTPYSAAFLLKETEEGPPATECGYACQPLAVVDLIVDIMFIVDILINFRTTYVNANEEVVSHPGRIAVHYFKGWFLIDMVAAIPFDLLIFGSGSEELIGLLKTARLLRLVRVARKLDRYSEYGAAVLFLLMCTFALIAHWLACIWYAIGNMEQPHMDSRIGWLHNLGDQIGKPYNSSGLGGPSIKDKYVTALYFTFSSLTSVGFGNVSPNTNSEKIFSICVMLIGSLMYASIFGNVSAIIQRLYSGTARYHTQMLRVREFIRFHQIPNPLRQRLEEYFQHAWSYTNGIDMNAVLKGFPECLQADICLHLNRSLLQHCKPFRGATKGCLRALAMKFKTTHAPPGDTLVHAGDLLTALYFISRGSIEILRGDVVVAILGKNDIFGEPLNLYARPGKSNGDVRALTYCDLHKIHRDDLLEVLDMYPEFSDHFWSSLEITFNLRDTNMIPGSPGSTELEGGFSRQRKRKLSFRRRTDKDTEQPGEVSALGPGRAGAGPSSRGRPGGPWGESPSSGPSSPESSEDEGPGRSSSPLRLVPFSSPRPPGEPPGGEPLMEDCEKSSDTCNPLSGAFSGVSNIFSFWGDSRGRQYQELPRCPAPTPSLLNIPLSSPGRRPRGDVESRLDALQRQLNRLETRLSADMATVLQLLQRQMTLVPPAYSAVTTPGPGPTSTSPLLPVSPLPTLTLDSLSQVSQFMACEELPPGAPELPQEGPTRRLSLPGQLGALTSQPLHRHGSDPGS
row,SMILES,"hERG current change (%, negative = inhibition) at 10uM"
1,COc1cc(/C=N/NC(=O)c2nnn(-c3nonc3N)c2C(C)C)ccc1O,-2.72%
2,CC(=O)Nc1cccc(C(=O)Nc2cccc3ncccc23)c1,15.5%
3,Cc1[nH]nc(-c2ccc(O)cc2O)c1-c1ccc(Cl)cc1,-4.72%
4,O=C1CSC(c2ccccc2)N1CCc1ccccc1 (centres unmarked),1.82%
5,CC(=O)Nc1c(C(=O)NCc2ccccc2)nnn1Cc1ccccc1,4.42%
6,O=C(Cc1ccccc1)Nc1ccc(NC(=O)c2ccco2)nc1,-5.96%
7,O=[N+]([O-])c1ccc(/C=C/c2ccc3ccccc3n2)cc1,5.95%
8,COC1C=CC(CNC(=O)c2cc3c(=O)n4cccc(C)c4nc3n2C)(OC)O1 (centres unmarked),10.1%
9,C=C[C@@H]1c2cc(C)ccc2N(S(=O)(=O)c2ccc(C)cc2)[C@H](c2ccccc2)C1(C#N)C#N,11.7%
10,COc1c(C)cc(C(=O)C2CCCN(C(=O)c3cccc(F)c3)C2)cc1C (centres unmarked),6.6%
11,CC(=O)N/C(=C\c1ccc(F)cc1)C(=O)N(C)C,14.2%
12,CC(C)CNC(=O)C(=O)Nc1ccc(N(C)C)cc1,8.18%
13,CC1(C)Cc2nc(NC3CCCCC3)c(C#N)cc2CO1,0.377%
14,COc1cccc(N2CCN(C(=O)CN(C)S(=O)(=O)c3ccc4c(c3)CCC(=O)N4)CC2)c1,-48.6%
15,CCCn1nc(NC(C)=O)c2cc3cccc(C)c3nc21,23.2%
16,Cn1c(Cc2cccc3ccccc23)nnc1SCc1ccc([N+](=O)[O-])cc1,-40.5%
17,Cc1cc(NC(=O)COc2ccc(Cl)cc2Cl)n(-c2ccccc2)n1,-5.57%
18,O=C(c1ccccc1)c1c[nH]c2ccccc12,14.6%
19,COc1ccc2c(c1)CCc1c-2n[nH]c1C(=O)NCCC(C)C,11.7%

row,SMILES,"hERG current change (%, negative = inhibition) at 10uM"
1,O=S(=O)(CCc1nc2ccccc2s1)c1ccc2ccccc2c1,6.95%
2,Cc1cc(C)cc(NC(=O)C2C3C=CC4(O3)C2C(=O)N(CCN2CCCCC2)C4C(=O)NC2CCCCC2)c1 (centres unmarked),-40.3%
3,COc1ccc(NS(=O)(=O)c2cc(NC(=O)Cc3c(F)cccc3Cl)ccc2OC)cc1,16%
4,CCc1nnc(NC(=O)CSc2nccn2-c2cc(C)cc(C)c2)s1,-6.58%
5,CC(NC(=O)C(=O)NN=C1CCCCCCCCCCC1)c1ccccc1 (centres unmarked),12.8%
6,COC(=O)c1ccc2c(c1)NC(=O)CS2,17.5%
7,CCn1cc([N+](=O)[O-])c(C(=O)Nc2ccc(Cn3nc(C)cc3C)cc2)n1,-7.93%
8,CCOc1ccc(-n2c(SCC(=O)c3c(N)n(C)c(=O)n(C)c3=O)nnc2-c2cccnc2)cc1,3.28%
9,COc1ccccc1Nc1nc(-c2sc(NC(=O)c3ccc([N+](=O)[O-])cc3)nc2C)cs1,-1.25%
10,CC1CCN(CCCNC(=O)COc2cc(=O)n(C)c3ccccc23)CC1,8.58%
11,CCSC1=C(C#N)C2(CCCC2)C(C#N)=C(N)N1,-22.4%
12,COc1ccc(C(=O)OCCN2CCOCC2)cc1OC.Cl,7.96%
13,Cn1ncc2c(NCc3ccccc3)ncnc21,-11%
14,Cc1c(C(=O)N/N=C/c2ccc(O)c(Br)c2)sc(N)c1C#N,2.49%
15,Cn1cc(Cl)c(C(=O)NC2CCCC2)n1,4.09%
16,CCC(=O)Nc1ccc(N2CCN(S(C)(=O)=O)CC2)cc1,26.4%
17,Cc1ccc(OCCC(=O)OCC(=O)NC2CCS(=O)(=O)C2)cc1 (centres unmarked),-3.57%
18,CC(=O)Nc1ccc(-c2csc(NC(=O)C3CC(=O)N(c4ccc5c(c4)OCCO5)C3)n2)cc1 (centres unmarked),15.7%
19,O=C1ON=C(c2ccc([N+](=O)[O-])cc2)/C1=C/c1ccccc1O,16.5%

row,SMILES,"hERG current change (%, negative = inhibition) at 10uM"
1,CCOC(=O)c1c(NC(=O)c2cccc(N3C(=O)CCC3=O)c2)sc(C)c1C,5.4%
2,Cc1c(C(=O)O)cccc1-c1ccc(/C=N/n2cnnc2)o1,20.7%
3,CSc1oc(-c2ccccc2)nc1S(=O)(=O)c1ccc(F)cc1,-6.65%
4,CCN1/C(=C/c2ccc3cccc(C)c3[n+]2CC)Sc2ccccc21.[I-],-75%
5,O=c1/c(=C/c2ccccc2)sc2nnc(-c3cccs3)n12,5.5%
6,O=C(Nc1cccnc1Cl)c1cc([N+](=O)[O-])ccc1Cl,9.09%
7,Cc1ccc(C(=O)NC2CC(C)(C)NC(C)(C)C2)cc1Cl,10.9%
8,CCOC(=O)N1CCN(C(=O)c2oc3ccc(S(=O)(=O)N4CC(C)CC(C)C4)cc3c2C)CC1 (centres unmarked),-28.3%
9,COc1cccc(/C=C/c2nc3c(cnn3-c3ccccc3)c(=O)[nH]2)c1,2.5%
10,CN(Cc1cccc(F)c1)C(=O)CNS(=O)(=O)c1ccc2ccccc2c1,18.5%
11,O=C(CCn1c(=O)oc2ccccc21)Nc1ccc2c(c1)OCCO2,10.6%
12,Cc1ccc(C2(C)NC(=O)N(CC(=O)NC(=O)NCCC(C)C)C2=O)cc1 (centres unmarked),-13.6%
13,Cc1ccc2[nH]cc(CCNC(=O)C3CCCO3)c2c1 (centres unmarked),8.04%
14,COc1ccc(S(=O)(=O)N2CCOCC2)cc1C(=O)N1CCCCCC1,6.5%
15,O=C(c1ccc2c(=O)n(-c3ccccc3)c(=S)[nH]c2c1)N1CCN(c2ccccc2)CC1,-1.95%
16,O=C(NCCc1ccc(F)cc1)N[C@@H](Cc1ccccc1)C(=O)O,6.08%
17,COC(=O)c1cn(C(=O)c2ccccc2Cl)c2ccccc12,-41.9%
18,CCOc1ccc(NC(=O)CSc2nc(C3CC3)nc3ccccc23)cc1,25.5%
